# According to the BET-seq Pho4 binding data (Le et al. 2018):
# The list shows a part of the results. The energies were worked out here from pooled read counts, against the library average; single values are noisy.
# Target: T1, Pho4 (S. cerevisiae) (UniProt P07270)
# T1 sequence: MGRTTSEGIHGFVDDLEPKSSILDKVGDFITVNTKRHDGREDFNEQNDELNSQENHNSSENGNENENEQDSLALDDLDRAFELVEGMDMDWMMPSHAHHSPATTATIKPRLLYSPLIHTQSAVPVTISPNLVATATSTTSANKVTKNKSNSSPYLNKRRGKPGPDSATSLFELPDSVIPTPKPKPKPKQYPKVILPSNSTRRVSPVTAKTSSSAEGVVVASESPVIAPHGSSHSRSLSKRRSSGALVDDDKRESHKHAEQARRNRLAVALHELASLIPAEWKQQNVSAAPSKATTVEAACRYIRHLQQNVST
# Assay: relative binding free energy (BET-seq); higher = weaker binding
# Conditions: reference: library average
row,Sequence,relative binding free energy [kcal/mol]
1,TTTGTCACGTGTATAA,0.07
2,TAAGCCACGTGGTGTG,-0.27
3,TAGTTCACGTGGCTTA,0.18
4,GCTGGCACGTGCTGGT,-0.09
5,ACTATCACGTGGTAGG,0.13
6,GGATTCACGTGTTATC,0.31
7,AATGACACGTGGAGGA,0.08
8,TGTTTCACGTGCAAGT,0.38
9,AATCTCACGTGAGGTA,0.4
10,GTGTGCACGTGATAGG,0.2
11,GGTTTCACGTGACTTT,0.4
12,TGTGGCACGTGGATCT,-0.03
13,GATAGCACGTGGCCGG,-0.04
14,GGAAGCACGTGATAGG,-0.08
15,TGGGTCACGTGCCATG,-0.06
16,TTCTGCACGTGGAGTA,-0.04
17,TTAGGCACGTGAGCTT,0.21
18,TAATTCACGTGTTAGC,0.27
19,CGCATCACGTGAGGGG,0.38
20,GAAGGCACGTGTGAGT,-0.04
21,ACTGTCACGTGAAAGG,0.32

row,Sequence,relative binding free energy [kcal/mol]
1,AGGCGCACGTGGTGTG,-0.28
2,AGTATCACGTGGTGTG,0
3,GTGAACACGTGTGGCA,0.05
4,GGTGGCACGTGGGGCG,-0.2
5,TTCGGCACGTGTGCGT,-0.14
6,TTATCCACGTGTGGTG,0.2
7,AGTAACACGTGGGGGT,-0.07
8,GTGGGCACGTGAAAAG,0.26
9,GAGTGCACGTGAGGAG,0.28
10,ATGTACACGTGATTGG,0.09
11,CGGTTCACGTGTTGCG,0.17
12,CGGGTCACGTGAGAAG,0.4
13,AAGGCCACGTGAGTGT,0.01
14,GGCCTCACGTGGGAGG,0.18
15,GGTTTCACGTGGTTCC,0.29
16,TGATTCACGTGAGCTT,0.35
17,TCTTGCACGTGAGCGT,0.1
18,AAAGTCACGTGGGAGG,-0.09
19,AGCGGCACGTGTGCAG,-0.07
20,AGGTACACGTGTATTC,0.16
21,ATTTGCACGTGTCTTT,0.06

row,Sequence,relative binding free energy [kcal/mol]
1,TGCTGCACGTGAAGTA,0.29
2,AATTGCACGTGTGGCA,-0.01
3,ATTTTCACGTGGGTTG,0.19
4,TGGATCACGTGGGGTA,0.02
5,TTCATCACGTGCGGTT,0.11
6,GGTTTCACGTGTTAGT,0.37
7,GTATGCACGTGATGAT,0.09
8,TTGATCACGTGCGGAG,0.25
9,GGCTGCACGTGTGATT,0.13
10,GGCTTCACGTGCTGTT,0.13
11,ATAATCACGTGGAATT,0.21
12,AATTACACGTGTTGGA,0.09
13,GTACTCACGTGGTAGT,0.16
14,TAAAACACGTGTAGTA,0.12
15,TTGGGCACGTGCAGAA,-0.14
16,CTGGTCACGTGGTCGA,0.04
17,TAAGCCACGTGAGGGT,0.13
18,GTTTGCACGTGGACTG,0.06
19,GGTTGCACGTGGTTCT,-0.01
20,TTTGTCACGTGGTCCT,0.05
21,GGCAGCACGTGTGAGG,0.01
